# Variants at the background level are over-represented here.
# B1: TPR 5TU (parent)
# chain: GGAUCUUCUCGAUCUAACAAAAAAGACAAAUCUGCCACAAAGCUUGAGAGCAUCUUCGGAUGCAGAGGCGGCAGCCUUCGGUGGCGCGAUAGCGCCAACGUUCUCAACUAUGACACGCAAAACGCGUGCUCCGUUGAAUGGAGUUUAUCAUG
# Variants of: B1
# Experiment: polymerase ribozyme fitness, log enrichment relative to wild type (log ratio); higher = more active; in vitro selection for triplet polymerase activity
# Procedure, shortened: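 Frozen incubation at −7 °C formed the core of a single, triplicate in vitro selection round applied to PCR-built, transcribed mutant libraries of each subunit of a heterodimeric triplet polymerase ribozyme. Extended constructs were gel-excised, captured with streptavidin beads and amplified by RT-PCR, and input and output libraries were Illumina-sequenced with a filter of ≥10 input reads and ≥1 read per output. Fitness is the logarithm of genotype enrichment relative to wild-type enrichment, with inverse-variance-weighted replicate averaging, and the logarithm is base 2.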
row,Variant,polymerase ribozyme fitness (log ratio)
1,GGAUCUUCUCGAUCUAACAAAAAAGACAAAUCUGCCACAAAGCUUGAGAGCAUCUUCGGAUGCAGAGGCGGCAGCCUUCGGUGGCGCGAUAGCGCCAACGUUCUCAACUAUGAAACGCAAAACGCGUGCUCCGUUGAAUGGAGGUUAUCAUG [C114A U144G],-3.71
2,GGAUCUUCUCGAUCUAACAAAAAAGACAAAUCUGCCACAAAGCUUGAGAGCAUCUUCGGAUGCAGAGGCGGCAGCCUUCGGUGGCGCGAUAGCGCCAACGUUCUCAACUAUGAGACGCGAAACGCGUGCUCCGUUGAAUGGAGUUUAUCAUG [C114G A119G],-2.84
3,GGAUCUUCUCGAUCUAACAAAAAAGACAAAUCUGCCACAAAGCUUGAGAGCAUCUUCGGAUGCAGAGGCGGCAGCCUUCGGUGGCGCGAUAGCGCCAACGUUCUCAACUAUGAUACGCAAAACGCGUGCUUCGUUGAAUGGAGUUUAUCAUG [C114U C131U],-1.64
4,GGAUCUUCUCGAUCUAACAAAAAAGACAAAUCUGCCACAAAGCUUGAGAGCAUCUUCGGAUGCAGAGGCGGCAGCCUUCGGUGGCGCGAUAGCGCCAACGUUCUCAACUAUGAUACGCAAAACGCGUGCUCCGUUGAAUGGAGUUUAGCAUG [C114U U148G],-3.06
5,GGAUCUUCUCGAUCUAACAAAAAAGACAAAUCUGCCACAAAGCUUGAGAGCAUCUUCGGAUGCAGAGGCGGCAGCCUUCGGUGGCGCGAUAGCGCCAACGUUCUCAACUAUGACCCGCAAAACGCGUGCUCCGUUGAAUGGGGUUUAUCUUG [A115C A142G A150U],-3.13
6,GGAUCUUCUCGAUCUAACAAAAAAGACAAAUCUGCCACAAAGCUUGAGAGCAUCUUCGGAUGCAGAGGCGGCAGCCUUCGGUGGCGCGAUAGCGCCAACGUUCUCAACUAUGACGCGCAAAACGCGUGCUCCGUUGAAUGAAGUUUAUCAUG [A115G G141A],-0.426
7,GGAUCUUCUCGAUCUAACAAAAAAGACAAAUCUGCCACAAAGCUUGAGAGCAUCUUCGGAUGCAGAGGCGGCAGCCUUCGGUGGCGCGAUAGCGCCAACGUUCUCAACUAUGACUCGCAAAACGCGUGCUCCGUUGAAUGCAGUUUAUCAUG [A115U G141C],-3.37
8,GGAUCUUCUCGAUCUAACAAAAAAGACAAAUCUGCCACAAAGCUUGAGAGCAUCUUCGGAUGCAGAGGCGGCAGCCUUCGGUGGCGCGAUAGCGCCAACGUUCUCAACUAUGACUCGCAAAACGCGUGCUCCGCUGAAUGGAGUUUAUCAUG [A115U U134C],-1.19
9,GGAUCUUCUCGAUCUAACAAAAAAGACAAAUCUGCCACAAAGCUUGAGAGCAUCUUCGGAUGCAGAGGCGGCAGCCUUCGGUGGCGCGAUAGCGCCAACGUUCUCAACUAUGACAUGCGAAACGCGUGCUCCGUUGAAUGGAGUUUAUCAUG [C116U A119G],-0.704
10,GGAUCUUCUCGAUCUAACAAAAAAGACAAAUCUGCCACAAAGCUUGAGAGCAUCUUCGGAUGCAGAGGCGGCAGCCUUCGGUGGCGCGAUAGCGCCAACGUUCUCAACUAUGACAUGCUAAACGCGUGCUCCGUUGAAUGGAGUUUAUCAUG [C116U A119U],-0.298
11,GGAUCUUCUCGAUCUAACAAAAAAGACAAAUCUGCCACAAAGCUUGAGAGCAUCUUCGGAUGCAGAGGCGGCAGCCUUCGGUGGCGCGAUAGCGCCAACGUUCUCAACUAUGACAUGAAAAACGCGUGCUCCGUUGAAGGGAGUUUAUCAUG [C116U C118A U139G],0.554
12,GGAUCUUCUCGAUCUAACAAAAAAGACAAAUCUGCCACAAAGCUUGAGAGCAUCUUCGGAUGCAGAGGCGGCAGCCUUCGGUGGCGCGAUAGCGCCAACGUUCUCAACUAUGACAUGCAAAACGCGUGCUCCGCUGAAUGGAGUUUAUCAUG [C116U U134C],-0.00566
13,GGAUCUUCUCGAUCUAACAAAAAAGACAAAUCUGCCACAAAGCUUGAGAGCAUCUUCGGAUGCAGAGGCGGCAGCCUUCGGUGGCGCGAUAGCGCCAACGUUCUCAACUAUGACACCCAGAACGCGUGCUCCGUUGAAUGGAGUUUAUCAUG [G117C A120G],0.308
14,GGAUCUUCUCGAUCUAACAAAAAAGACAAAUCUGCCACAAAGCUUGAGAGCAUCUUCGGAUGCAGAGGCGGCAGCCUUCGGUGGCGCGAUAGCGCCAACGUUCUCAACUAUGACACGAAAAACGCGUGCUCCGUUGAAUGGAGAUUAUCAUG [C118A U144A],0.0258
15,GGAUCUUCUCGAUCUAACAAAAAAGACAAAUCUGCCACAAAGCUUGAGAGCAUCUUCGGAUGCAGAGGCGGCAGCCUUCGGUGGCGCGAUAGCGCCAACGUUCUCAACUAUGACACGGAAAACGCGUGCUCCGUUGAAUGGAGUUUAUCGUG [C118G A150G],-2.14
16,GGAUCUUCUCGAUCUAACAAAAAAGACAAAUCUGCCACAAAGCUUGAGAGCAUCUUCGGAUGCAGAGGCGGCAGCCUUCGGUGGCGCGAUAGCGCCAACGUUCUCAACUAUGACACGGAAAACGCGUGCUCCGUUGAAUGAAGUUUAUCAUG [C118G G141A],-0.0985
17,GGAUCUUCUCGAUCUAACAAAAAAGACAAAUCUGCCACAAAGCUUGAGAGCAUCUUCGGAUGCAGAGGCGGCAGCCUUCGGUGGCGCGAUAGCGCCAACGUUCUCAACUAUGACACGUAAAACGCGUGCUCCGUUGAAUUGAGUUUAUCAUG [C118U G140U],-3.11
18,GGAUCUUCUCGAUCUAACAAAAAAGACAAAUCUGCCACAAAGCUUGAGAGCAUCUUCGGAUGCAGAGGCGGCAGCCUUCGGUGGCGCGAUAGCGCCAACGUUCUCAACUAUGACACGCCAAACGCGUGCUCCGUUGAACGGAGUUUAUCAUG [A119C U139C],-3.46
19,GGAUCUUCUCGAUCUAACAAAAAAGACAAAUCUGCCACAAAGCUUGAGAGCAUCUUCGGAUGCAGAGGCGGCAGCCUUCGGUGGCGCGAUAGCGCCAACGUUCUCAACUAUGACACGCGAAACGCGUGCUCCGUUGAAUGGAGUUAAUCAUG [A119G U146A],-0.399

row,Variant,polymerase ribozyme fitness (log ratio)
1,GGAUCUUCUCGAUCUAACAAAAAAGACAAAUCUGCCACAAAGCUUGAGAGCAUCUUCGGAUGCAGAGGCGGCAGCCUUCGGUGGCGCGAUAGCGCCAACGUUCUCAACUAUGACACGCUAAACGCGUGCUCCGUUGAAUGGAGAUUAUCAUG [A119U U144A],-0.171
2,GGAUCUUCUCGAUCUAACAAAAAAGACAAAUCUGCCACAAAGCUUGAGAGCAUCUUCGGAUGCAGAGGCGGCAGCCUUCGGUGGCGCGAUAGCGCCAACGUUCUCAACUAUGACACGCAACACGUGUGCUCCGUUGAAUGGAUUUUAUCAUG [A121C C125U G143U],-2.41
3,GGAUCUUCUCGAUCUAACAAAAAAGACAAAUCUGCCACAAAGCUUGAGAGCAUCUUCGGAUGCAGAGGCGGCAGCCUUCGGUGGCGCGAUAGCGCCAACGUUCUCAACUAUGACACGCAAUACGUGUGCUCCGUUGAAUGGACUUCAUCAUG [A121U C125U G143C U146C],-3.38
4,GGAUCUUCUCGAUCUAACAAAAAAGACAAAUCUGCCACAAAGCUUGAGAGCAUCUUCGGAUGCAGAGGCGGCAGCCUUCGGUGGCGCGAUAGCGCCAACGUUCUCAACUAUGACACGCAAACCGCGUGCUCCGUUGAAUGGAGUUUAUUAUG [A122C C149U],-1.16
5,GGAUCUUCUCGAUCUAACAAAAAAGACAAAUCUGCCACAAAGCUUGAGAGCAUCUUCGGAUGCAGAGGCGGCAGCCUUCGGUGGCGCGAUAGCGCCAACGUUCUCAACUAUGACACGCAAAGCGAGUGCUCCGGUGAAUGGAGUUUAUCAUG [A122G C125A U134G],-2.92
6,GGAUCUUCUCGAUCUAACAAAAAAGACAAAUCUGCCACAAAGCUUGAGAGCAUCUUCGGAUGCAGAGGCGGCAGCCUUCGGUGGCGCGAUAGCGCCAACGUUCUCAACUAUGACACGCAAAGCGCUUGCUCCGGUGAAUGGAGUUUAACAUG [A122G G126U U134G U148A],≤ -4.2
7,GGAUCUUCUCGAUCUAACAAAAAAGACAAAUCUGCCACAAAGCUUGAGAGCAUCUUCGGAUGCAGAGGCGGCAGCCUUCGGUGGCGCGAUAGCGCCAACGUUCUCAACUAUGACACGCAAAUCGCGUGCUCCGUUGAAUGGAGUUUAUUAUG [A122U C149U],-0.616
8,GGAUCUUCUCGAUCUAACAAAAAAGACAAAUCUGCCACAAAGCUUGAGAGCAUCUUCGGAUGCAGAGGCGGCAGCCUUCGGUGGCGCGAUAGCGCCAACGUUCUCAACUAUGACACGCAAAUCGCGUGCUCCGUUGAAUGCAGUUUAUCAUG [A122U G141C],0.115
9,GGAUCUUCUCGAUCUAACAAAAAAGACAAAUCUGCCACAAAGCUUGAGAGCAUCUUCGGAUGCAGAGGCGGCAGCCUUCGGUGGCGCGAUAGCGCCAACGUUCUCAACUAUGACACGCAAAAUGCGUGCUCCGUUGAAUGGAGUUUAUCAUG [C123U],0.225
10,GGAUCUUCUCGAUCUAACAAAAAAGACAAAUCUGCCACAAAGCUUGAGAGCAUCUUCGGAUGCAGAGGCGGCAGCCUUCGGUGGCGCGAUAGCGCCAACGUUCUCAACUAUGACACGCAAAACAGGUGCUCCGUUGAAUGGAGUUUAUCAUG [G124A C125G],0.356
11,GGAUCUUCUCGAUCUAACAAAAAAGACAAAUCUGCCACAAAGCUUGAGAGCAUCUUCGGAUGCAGAGGCGGCAGCCUUCGGUGGCGCGAUAGCGCCAACGUUCUCAACUAUGACACGCAAAACACGUGCUCCUUUGAAGUGAGUUUAUUAUG [G124A G133U U139G G140U C149U],≤ -4.2
12,GGAUCUUCUCGAUCUAACAAAAAAGACAAAUCUGCCACAAAGCUUGAGAGCAUCUUCGGAUGCAGAGGCGGCAGCCUUCGGUGGCGCGAUAGCGCCAACGUUCUCAACUAUGACACGCAAAACACGUGCUCCGUUGAAUGGAGUUUAGCAUG [G124A U148G],-3.69
13,GGAUCUUCUCGAUCUAACAAAAAAGACAAAUCUGCCACAAAGCUUGAGAGCAUCUUCGGAUGCAGAGGCGGCAGCCUUCGGUGGCGCGAUAGCGCCAACGUUCUCAACUAUGACACGCAAAACCGGUGCUCCGUUGAAUGGAGUUUAACAUG [G124C C125G U148A],≤ -4.2
14,GGAUCUUCUCGAUCUAACAAAAAAGACAAAUCUGCCACAAAGCUUGAGAGCAUCUUCGGAUGCAGAGGCGGCAGCCUUCGGUGGCGCGAUAGCGCCAACGUUCUCAACUAUGACACGCAAAACCCGUGCUCCGUUGAAUGGAGUUUAUGAUG [G124C C149G],≤ -4.2
15,GGAUCUUCUCGAUCUAACAAAAAAGACAAAUCUGCCACAAAGCUUGAGAGCAUCUUCGGAUGCAGAGGCGGCAGCCUUCGGUGGCGCGAUAGCGCCAACGUUCUCAACUAUGACACGCAAAACUCGUGCUCCGUUGAAUGGAUUUUAGCAUG [G124U G143U U148G],≤ -4.2
16,GGAUCUUCUCGAUCUAACAAAAAAGACAAAUCUGCCACAAAGCUUGAGAGCAUCUUCGGAUGCAGAGGCGGCAGCCUUCGGUGGCGCGAUAGCGCCAACGUUCUCAACUAUGACACGCAAAACUCGUGCGCCGUUGACUGGGGUUUAUCAUG [G124U U130G A138C A142G],≤ -4.2
17,GGAUCUUCUCGAUCUAACAAAAAAGACAAAUCUGCCACAAAGCUUGAGAGCAUCUUCGGAUGCAGAGGCGGCAGCCUUCGGUGGCGCGAUAGCGCCAACGUUCUCAACUAUGACACGCAAAACGAGUGCUCCGUUGAAUGGAGUUUUUCAUG [C125A A147U],-0.189
18,GGAUCUUCUCGAUCUAACAAAAAAGACAAAUCUGCCACAAAGCUUGAGAGCAUCUUCGGAUGCAGAGGCGGCAGCCUUCGGUGGCGCGAUAGCGCCAACGUUCUCAACUAUGACACGCAAAACGGGUGCUCCGUUGACUGGAGUUUAUCAUG [C125G A138C],≤ -4.2
19,GGAUCUUCUCGAUCUAACAAAAAAGACAAAUCUGCCACAAAGCUUGAGAGCAUCUUCGGAUGCAGAGGCGGCAGCCUUCGGUGGCGCGAUAGCGCCAACGUUCUCAACUAUGACACGCAAAACGCAUGCUCCGUUGAAUGGAGUUUAUCAUG [G126A],0.682
